Laboratory results: PubChem BioAssay AID1346428 (National Center for Advancing Translational Sciences (NCATS), 2018)
Where “and” joins values, the source holds several entries; their conditions need not be identical. Identical values can stand only once. The whole screen tested about 48,000 compounds, of which about 1,200 (2.5%) were called active. Another 2% or so got no clear call; they are omitted.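 The calls were made as follows: active = activation of at least 60% and not above a set upper limit (about 1 call in 100 departs from these limits); inconclusive = activation of 40% to 60%, or above that upper limit; inactive = activation under 40%.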 This is one part of the list. A structure can be active in one record and inactive in another.

Each compound was assayed against Probable G-protein coupled receptor 32 (Homo sapiens) (UniProt O75388) (assay: qHTS for Agonists of Human Resolvin D1 Receptor DRV1). Conditions: CHO-K1 GPR32 beta-arrestin PathHunter luminescence, 90 min; at 76.9 µM; stronger effect = higher value; zero percent set by DMSO-only wells.
Method in brief: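 PathHunter beta-arrestin recruitment in CHO-K1 cells stably expressing ProLink-tagged GPR32. Cells were exposed to compound for 90 min at 37 C, then chemiluminescence was read after 1 h detection at ambient temperature; DMSO served as basal control.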
Also: 0% is about no effect.

UniProt O75388, sequence (O75388 whole entry, looked up): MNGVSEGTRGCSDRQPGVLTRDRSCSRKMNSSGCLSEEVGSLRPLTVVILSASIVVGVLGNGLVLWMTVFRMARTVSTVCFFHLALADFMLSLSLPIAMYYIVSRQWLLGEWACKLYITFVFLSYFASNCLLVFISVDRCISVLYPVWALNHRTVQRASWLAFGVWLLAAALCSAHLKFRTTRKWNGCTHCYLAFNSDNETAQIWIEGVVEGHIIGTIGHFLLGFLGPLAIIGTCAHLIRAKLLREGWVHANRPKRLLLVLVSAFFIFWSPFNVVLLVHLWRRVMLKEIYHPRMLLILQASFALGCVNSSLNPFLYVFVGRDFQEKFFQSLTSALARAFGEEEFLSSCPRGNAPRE

Structure (SMILES) | activation
CN(C)c1ccc(CNC(=O)Cn2c(-c3cccs3)cc3cc(Cl)ccc32)cc1 | inactive: -14.1%
CCOC(=O)c1c(NC(=O)COc2ccc(Cl)cc2Cl)sc2c1CCCCC2 | inactive: 32.4%
CCc1ccc(S(=O)(=O)Nc2cc3c(cc2C)n(C)c(=O)c(=O)n3C)cc1 | inactive: 16.7%
COc1ccccc1NC(=O)N1CCN(c2nnc(C)c3c(C)n(-c4ccccc4)nc23)CC1 | inactive: -4%
Nc1c(-c2nc(-c3ccccc3Cl)no2)nnn1-c1ccccc1C(F)(F)F | inactive: -4.01%
CC1=C(c2ccc(C)c(C)c2)S(=O)(=O)N=C1N1CCC(C(=O)NCc2ccc(N(C)C)cc2)CC1 | inactive: 4.42%
CCN(CC)S(=O)(=O)c1ccc(NC(=O)c2c(C)oc3ncnc(N4CCCCC4)c23)cc1 | inactive: -0.846%
O=c1c2oc3ccccc3c2n(Cc2ccccc2F)c(=O)n1Cc1ccc2c(c1)OCO2 | inactive: -13.7%
CCN(CC)CCN(C(=O)c1ccco1)c1nc2ccc(F)cc2s1 | inactive: 2.28%
Cc1ccc(-c2nnc(SCC(=O)NCc3ccccc3)o2)cc1 | inactive: -8.76%
COc1ccc(CNC(=O)CC(C)CC2=NS(=O)(=O)c3ccccc3N2)cc1 (configuration not stated) | inactive: 4.88%
Cc1ccccc1Cn1c(=O)n(Cc2ccco2)c(=O)c2sc3ccccc3c21 | inactive: -3.45%
CCOc1ccc(S(=O)(=O)Nc2ccc3c(c2)CCCN3C(=O)c2cccs2)cc1 | inactive: -6.04%
CCOc1ccc(CCNC(=O)C2Cc3ccccc3N2C(=O)CC)cc1 (configuration not stated) | inactive: 0.325%
CCOC(=O)c1ccc(Nc2c(-c3ccc(OC)cc3)nc3nc[nH]n23)cc1 | inactive: -30.5%
COc1ccccc1CNC(=O)Cc1c(C)c2cc3c(C)coc3c(C)c2oc1=O | inactive: -17.5%
CCOC(=O)c1cc2c(=O)n3ccccc3nc2n(CCCOC)c1=NC(=O)c1c(-c2c(F)cccc2Cl)noc1C | inactive: -22.4%
CCC(=O)N1CCc2cc(CNC(=O)Nc3cc(OC)c(OC)c(OC)c3)ccc21 | inactive: 17.5%
CCN(CC)C(=O)C1=C(C)Nc2nc3ccccc3n2C1c1ccccc1F (configuration not stated) | inactive: -4.08%
COc1ccc(Cl)cc1NC(=O)Cn1c(=O)n(-c2ccc(C)cc2)c(=O)c2ccc(C(=O)NCc3ccccc3Cl)cc21 | inactive: -2.06%
O=C(Cc1ccc(NC(=O)N2CCCCc3ccccc32)cc1)NCc1cccc(Br)c1 | inactive: -8.19%

Structure (SMILES) | activation
Cc1cccc(N2CCN(C(=O)Cn3c(C)c4cnn(-c5ccccc5)c(=O)c4c3C)CC2)c1C | inactive: -3.74%
Cc1nnc(SCc2cc(=O)c3cc(F)ccc3[nH]2)n1C | inactive: -15.5%
COc1ccc(CNC(=O)C(=O)NCC(c2ccco2)S(=O)(=O)c2cccs2)cc1 (configuration not stated) | inactive: -11.5%
CCCCn1c(SCc2ccccc2C)nc2ccsc2c1=O | inactive: -29.6%
CC1=C(C#N)C(NC(=O)c2ccccc2)(C(F)(F)F)C(=O)N1 (configuration not stated) | inactive: -8.62%
C=C(C)Cn1c(SCC(=O)c2ccc(Br)cc2)nc2sc3c(c2c1=O)CCCC3 | inactive: -5.76%
Cc1ccc(NC(=O)c2ccc3c(O)c(S(=O)(=O)c4ccc(Cl)cc4)c(=O)[nH]c3c2)cc1 | inactive: -17.9%
Cc1ccc(NS(=O)(=O)c2ccc3c(c2)CCN3C(=O)C2CC2)c(C)c1 | inactive: 40.2%
CC(C)c1ccccc1NC(=O)C(Cc1c[nH]c2ccccc12)NC(=O)OC(C)(C)C (configuration not stated) | inactive: -31.9%
Cc1ccc(S(=O)(=O)c2nc(-c3cccs3)oc2SCc2ccc(F)cc2)cc1 | inactive: -8.36%
Cc1ccc2nc(NC(=O)CSc3cc(C)[nH]c(=O)n3)sc2c1 | inactive: -2.3%
COc1ccc(CNC(=O)CN2C(=O)COc3ccccc32)c(OC)c1 | inactive: -7.68%
Oc1ccccc1-c1nc2cnccn2c1Nc1ccc(Cl)cc1 | inactive: 30.9%
CC(=O)c1ccc(NC(=O)C2CCN(S(=O)(=O)c3c(C)noc3/C=C/c3ccc(C)cc3)CC2)cc1 | inactive: -5.34%
COc1ccc(-c2nn3c(-c4ccccc4)nnc3c3ccccc23)cc1 | inactive: 11.1%
CCOc1ccc(CNC(=O)CCCn2c(=O)c3cccn3c3cccnc32)cc1 | inactive: -15.9%
CCOc1ccc(C(=O)N2CCc3cc(OC)c(OC)cc3C2COc2ccc3c(C)cc(=O)oc3c2)cc1OCC (configuration not stated) | inactive: -5.16%
CCCOc1ccc(OC(=O)c2ccc(-c3ccc(CCC)cn3)cc2)cc1 | inactive: 1.31%
O=S(=O)(NCCc1csc(-c2cccc(F)c2)n1)c1cc(F)ccc1F | inactive: 24.6%
Cc1ccccc1Cn1c(SCc2ccc(C(=O)N3CCCCC3)cc2)nc2ccncc21 | inactive: 1.16%
COC(=O)c1c(NC(=O)CCCOc2ccc(C)cc2)sc2c1CCCC2 | inactive: 7.68%

Structure (SMILES) | activation
CCn1c(C(=O)Nc2ccccc2C(=O)OC)cc2sc(Cl)cc21 | inactive: -1.45%
CCCCCCCCCCOc1cc2c(=O)c(C(=O)OCC)c[nH]c2cc1OCC | inactive: -3.91%
COc1ccc(CCNC(=O)c2cc(Nc3ccccc3)nc3ccccc23)cc1OC | inactive: -26.1%
O=C1CCc2cc(S(=O)(=O)NCc3ccccc3)cc3c2N1CC3 | inactive: -1.25%
COc1cc(NC(=O)CCNC(=O)Cn2ccc3ccccc3c2=O)cc(OC)c1OC | inactive: -6.29%
Cc1ccc(NC(=O)Cn2c(=O)n(Cc3ccc(F)cc3)c(=O)c3cccnc32)cc1C | inactive: -4.7%
O=C(Nc1ccc(S(=O)(=O)N(Cc2ccccc2)c2ccccc2)cc1)c1ccccc1F | inactive: -0.0334%
Cc1nc2c(c(C)nn2-c2ccccc2)c(C)c1CCC(=O)Nc1ccccc1 | inactive: 9.44%
COC(=O)c1ccccc1NC(=O)CCCn1c(C)c2cnn(-c3ccccc3)c(=O)c2c1C | inactive: -37.1%
CCCn1ccc2c(OCC(=O)Nc3ccccc3C(=O)OCC)cccc2c1=O | inactive: -20.7%
O=C(CCCCn1c(=O)c2ccccc2n(Cc2ccc(F)cc2Cl)c1=O)NCCc1ccc(Cl)cc1 | inactive: -1.11%
COc1ccc(-c2nnc(SCCOc3ccccc3C)o2)cc1OC | inactive: 10.9%
O=S(=O)(c1ccc(Cl)cc1)c1nc(-c2cccs2)oc1SCc1ccccc1F | inactive: -18.6%
Cc1cn(C)c(CC(=O)Nc2ccc(F)cc2Cl)c1C(=O)O | inactive: -0.559%
Cc1cc(C)cc(OCCSc2nc3ccc(NC(=O)COc4ccccc4)cc3s2)c1 | inactive: -4.44%
Cc1ccc(OCC(=O)Nc2nonc2-c2ccc(Br)cc2)cc1C | inactive: -3.68%
O=C(c1ccc(F)cc1)C1CCN(CCn2c(=O)[nH]c3ccccc3c2=O)CC1 | active: 82.3% and inactive: -6.34%
COc1ccc(-c2ccc(NS(=O)(=O)c3cc(C)c(C)cc3C)cc2)nn1 | inactive: -4.83%
CCn1nc(C)c2c(-c3ccccc3)cc(=O)n(C(C)C(=O)Nc3cc(C)ccc3C)c21 (configuration not stated) | inactive: -13.7%
O=C(Nc1nc2c(F)cccc2s1)c1ccc(S(=O)(=O)N2CCCc3ccccc32)cc1 | inactive: -6.37%
CCOC(=O)C(CC)N1CCN(Cc2ccc(F)cc2)C(=O)C1=O (configuration not stated) | inactive: -37.4%

Structure (SMILES) | activation
COc1ccc(N2CCN(C(=O)C(C)n3nc(C)c4sc5ccccc5c4c3=O)CC2)cc1 (configuration not stated) | inactive: -25.7%
CCc1ccc(NC(=O)Cn2nc(SC)c(S(=O)(=O)c3ccc(OC)cc3)c2N)cc1 | inactive: 15.3%
Clc1ccc(CCNC(c2ccc(Cl)cc2)c2nnc(-c3ccccc3)o2)cc1 (configuration not stated) | inactive: -23.5%
CCOC(=O)c1c(NC(=O)C2c3ccccc3Oc3ccccc32)sc2c1CCC(CC)C2 (configuration not stated) | inactive: -13%
CCc1ccc(NC(=O)Cn2c(=O)n(CCCC(=O)NCc3ccc4c(c3)OCO4)c(=O)c3ccccc32)cc1 | inactive: -7.44%
CCOC(=O)c1c(S(=O)(=O)N2CCCC(C(=O)N3CCN(c4cc(C)ccc4C)CC3)C2)c(C)n(C)c1C (configuration not stated) | inactive: 14%
CCS(=O)(=O)NCC(c1ccco1)N1CCN(c2ccc(F)cc2)CC1 (configuration not stated) | inactive: 15.6%
CC(=O)C1=C(c2cccc([N+](=O)[O-])c2)N(C(C)=O)n2c(nnc2-c2ccc(C)cc2)S1 | inactive: -11.8%
Cc1nc(SCC(=O)Nc2ccc(C)c(Cl)c2)cc(-c2ccccc2)n1 | inactive: -20.7%
CCOc1ccc(C(=O)Oc2c(Sc3ccccc3)c(C)nn2C(C)(C)C)cc1OCC | inactive: 2.46%
CCc1ccc2occ(CC(=O)Nc3ccc(OC)c(Cl)c3)c2c1 | inactive: 6.44%
COc1ccc(CN(Cc2ccco2)C(=O)COc2ccccc2OC)cc1 | inactive: -4.72%
CC(=O)c1ccc(NC(=O)Nc2sc3nc4n(c(=O)c3c2C)CCC(C)CC4)cc1 (configuration not stated) | inactive: -2.22%
CCc1ccccc1-n1cnc2cc(C(=O)NC3CCCCCC3)ccc21 | inactive: -18.6%
CC(C)c1ccc(CNC(=O)c2ccc(N3CCCC3)c(NC(=O)NCc3ccccc3)c2)cc1 | inactive: -31.7%
O=C(c1ccc2c(c1)CCN2S(=O)(=O)c1ccccc1)N1CCN(c2ccccc2F)CC1 | inactive: -4.37%
O=C(Nc1ccccc1Cl)[C@H](CSCc1ccccc1)N1Cc2ccccc2C1=O | inactive: -10.8%
COc1ccccc1N1CCN(S(=O)(=O)c2ccc(F)c(C(=O)Nc3ccc(Cl)cc3C(F)(F)F)c2)CC1 | inactive: -14.3%
O=C(CN1C(=O)CSc2ccc(S(=O)(=O)N3CCCC3)cc21)NCc1ccccc1Cl | inactive: -21.6%
